Source: ChEMBL document CHEMBL4888484, “Replenishing the malaria drug discovery pipeline: Screening and hit evaluation of the MMV Hit Generation Library 1 (HGL1) against asexual blood stage Plasmodium falciparum ,using a nano luciferase reporter read-out” (2022)
About 540 (0.36%) of roughly 150,000 compounds showed an effect of 50% or more. The list shows a part of the results.

Tested on: Plasmodium falciparum
Experiment: Primary screen in NF54 nanoGlo assay, in single point, at 2uM, 72h; a lower Z score goes with more inhibition
Type: functional, Erythrocyte
Conditions: timepoint 72 hour

| SMILES | % Inhibition [%] | Z score | % Inhibition (2 µM) [%] | Z score (2 µM) |
| --- | --- | --- | --- | --- |
| Cc1ccccc1-n1c(=O)n(Cc2ccccc2)c(=O)c2c1ncn2Cc1ccccc1Cl | -7 | 0.64 | – | – |
| c1cnc2c(c1)nnn2OCC1CCCCCC1 | 16 | -1.98 | – | – |
| Cc1cc(CN2CCS(=O)(=O)C[C@H]2C2CC2)ccc1F | -1 | 0.15 | – | – |
| COc1ccc(-c2cc3n(n2)CCCN(C(=O)c2ccccc2Cl)C3)cc1OC | 1 | -0.07 | – | – |
| COc1ccc(Cl)cc1C(=O)N[C@@H]1COCC[C@@H]1OCCN(C)C | -8 | 1.41 | – | – |
| CCOc1cc(N2CC(N[C@H]3CCOC3)C2)ncn1 | -16 | 2.45 | – | – |
| Cc1cc(=O)[nH]c(C)c1NS(=O)(=O)NCc1ccccc1 | 7 | -0.72 | – | – |
| COc1ccc(CNCc2c3c(nn2C)CCCC3)c(Cl)c1 | -14 | 1.61 | – | – |
| CC1CCCCC1OCCN1CCCCC1C(N)=O (stereo unspecified) | -5 | 0.84 | – | – |
| C[C@H]1CCCCN1CCCCNC(=O)Nc1cccc(OC(F)F)c1 | -4 | 0.36 | – | – |
| O=C(c1ccncc1)N(Cc1cc2ccccc2nc1O)C[C@H]1CCCO1 | -20 | 2.31 | – | – |
| CCO[C@H]1COC[C@@H]1Nc1nc(N)nc(C)c1Cl | 22 | -2.99 | – | – |
| COc1ccc(OC)c(S(=O)(=O)N2CCCN(C)c3ccccc32)c1 | -12 | 1.33 | – | – |
| Cc1c2c(n(Cc3ccc(F)c(F)c3)c1C(=O)NCc1ccncc1)CCCC2 | 7 | -0.69 | – | – |
| CC(C)c1cc(CNC2CCN(Cc3ccco3)CC2)no1 | 4 | -0.7 | – | – |
| Cc1cc(CN(c2ccc(C#N)cc2)S(C)(=O)=O)on1 | -8 | 0.73 | – | – |
| Cc1sccc1CN1CC[C@H](O)C12CCCC2 | 3 | -0.62 | – | – |
| Cc1noc(C2CN(C(=O)NCc3ccc(F)cc3)C2)n1 | -4 | 0.73 | – | – |
| CCc1n[nH]c2c1CN(c1cccc(C(=O)N(C)C)n1)CC2 | -17 | 1.6 | – | – |
| O=S(=O)(C1CC1)N1CCOC[C@H]1c1noc(-c2ccccc2)n1 | -6 | 0.73 | – | – |
| c1csc(-c2n[nH]cc2CNCC2CC2)c1 | -5 | 0.58 | – | – |
| C[C@H]1CN(C(=O)c2cc(Cl)cc(F)c2N)Cc2c[nH]nc21 | 2 | -0.33 | – | – |

| SMILES | % Inhibition [%] | Z score | % Inhibition (2 µM) [%] | Z score (2 µM) |
| --- | --- | --- | --- | --- |
| Cc1nc(CNC(=O)c2cn(CCN3CCOCC3)nn2)sc1C | -3 | 0.33 | – | – |
| COc1ccc(-c2nc3c(c(N4CCN(C(C)C)CC4)n2)CCOCC3)cc1 | 3 | -0.48 | – | – |
| OC1=Nc2cccc3c2c(cn3Cc2cccc(F)c2)[C@@H](c2ccccc2)C1 | -7 | 0.92 | – | – |
| CCN(Cc1ccc(Br)c(F)c1)S(C)(=O)=O | -3 | 0.38 | – | – |
| C#Cc1ccc(C(=O)N[C@H]2CCN(CC)CC2(F)F)cc1 | 7 | -0.93 | – | – |
| O=C([C@H]1CCc2nncn2C1)N1CCC(c2nc(C(F)(F)F)cs2)CC1 | -15 | 1.81 | – | – |
| CC(C)NC(=O)N(C)Cc1ccc(F)cc1 | 34 | -0.7 | – | – |
| Cn1nnc2c(N3CC[C@H](NC(=O)C(F)F)C34CCCC4)ncnc21 | -17 | 2.31 | – | – |
| Cc1nnc2cc(N3CCN(S(=O)(=O)c4ccccc4F)CC3)cnn12 | 8 | -0.91 | – | – |
| CC(C)(C)OC[C@@H](O)CN1C(C)(C)CCCC1(C)C | -6 | 0.63 | – | – |
| Cc1cc2c(cc1-c1ccnc(NCCN3CCOCC3)n1)NC(C)(C)C[C@@H]2C | -16 | 2.05 | – | – |
| CCOC(=O)N1CCC(NCc2c[nH]nc2-c2ccc(OC)cc2F)CC1 | -6 | 0.79 | – | – |
| C[C@H](Oc1ccccc1)C(=O)Nc1cnns1 | 7 | -0.99 | – | – |
| O=C(NCC1CC1)c1cn[nH]c1-c1ccccc1 | – | – | 6 | -0.76 |
| CC(C)[C@@H](C(=O)Nc1cc(Cl)ccc1O)N1CCCS1(=O)=O | -17 | 2.29 | – | – |
| COc1cncc(S(=O)(=O)NCCc2cnoc2)c1 | -2 | 0.29 | – | – |
| CC(C)CC1CCN(C(=O)c2coc(S(=O)(=O)N(C)C)c2)CC1 | 18 | -1.56 | – | – |
| O=C(N[C@H]1CCC[C@H]1Oc1cc(F)cc(F)c1)c1cccc[n+]1[O-] | -3 | 0.55 | – | – |
| CN(C)c1n[nH]c(NCc2csc(C3CC3)n2)n1 | -1 | 0.14 | – | – |
| O=C(CC[C@H]1CCCN(c2ccncc2)C1)NCc1ccccc1Cl | -10 | 1.41 | – | – |
| Cn1cc(-c2ccccc2)cc1C(=O)NCc1ccc(N2CCOCC2)cc1 | -3 | 0.44 | – | – |
